# Reference: PubChem BioAssay AID1347120 (National Center for Advancing Translational Sciences (NCATS), 2019)
# About 930 (0.24%) of roughly 390,000 compounds were called active. The shares of active, inactive and inconclusive entries below differ from those in the screen. The call rests on the fitted dose curve; in most records, active means well fitted activation curve with a large enough effect; inconclusive means small, poorly fitted or top-dose-only effect; inactive means no such curve, though single readings can be large or run the other way. Where the call is inconclusive, the potency comes from a doubtful curve fit.
# Experiment: qHTS for Suppressors of FUS Proteinopathy: Primary screen using FUS-linked yeast assay; further: nearly all actives have a fitted effect of over 55% in size;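 on growth rescue (activation): plate controls were DMSO vehicle for no effect and reference control for full effect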
# Settings: S. cerevisiae FUS-expressing, OD600, 24 h; Potency: growth rescue; growth rescue (activation): at 76.6 µM (top of the series)
# Method in brief: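 Steps: raffinose overnight preculture; dilution to OD 0.005 in 2% galactose minimal medium; compound addition (concentration series); 24hr at 30C, 99% humidity; absorbance read at 600 nm.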
# Potency means the concentration at half of the fitted maximal effect; tags describe the fitted curve by direction and shape.
SMILES,Potency,growth rescue (activation)
COc1cc(OC)c(OC)cc1CNc1sc2c(c1C(=O)Nc1ccccc1OC)CCC2,"inconclusive: 14.1 µM [activator, partial curve, poor fit]",–
O=C1C=C(c2ccc(C(=O)O)c(Cl)c2)C[C@@H](c2ccc3c(c2)OCO3)C1,inactive,–
Cc1cccc(C(O)C(O)c2cccc(C)n2)n1 (stereo unspecified),inactive,–
COc1ccc(CC(=O)Nc2nncs2)cc1OC,–,inconclusive: 64.9% [activator]
Cc1ccc(NC(=O)CN2CCSc3ccc(S(=O)(=O)N4CCCC4)cc32)cc1C,"inconclusive: 11.2 µM [activator, partial curve]",–
O=C1CN(C(=O)c2ccc(S(=O)(=O)N3CCCC3)cc2)C(c2ccccc2)c2cc(Br)ccc2N1 (stereo unspecified),"inconclusive: 31.6 µM [activator, single point]",–
CCCCc1ccc(CC2S/C(=C(\C#N)C(=O)N3CCOCC3)N(c3ccccc3)C2=O)cc1 (stereo unspecified),"inconclusive: 25.1 µM [activator, partial curve]",–
Cc1c(CCOC(=O)C23CC4(C)CC(C)(CC(C)(C4)C2)C3)sc[n+]1CC(=O)c1ccccc1,"inconclusive: 39.8 µM [activator, single point]",–
CC(C)(C)C(=O)NC1(C(F)(F)F)C(=O)Nc2c1c(=O)[nH]c(=O)n2-c1ccccc1 (stereo unspecified),inactive,–
CC(C)(C)c1ccc(/C=C/C(=O)Nc2cccnc2)cc1,inactive,–
COc1ccccc1N1CCN(N=Cc2ccccc2Br)CC1,inactive,–
CCCc1ccc(-c2cc(NC(=O)CSc3nnc(N)s3)n(-c3ccccc3)n2)cc1,"inconclusive: 50.1 µM [activator, single point]",–
CCC1CN(C(=O)Nc2ccc(C)c(F)c2)c2ccccc2S1 (stereo unspecified),inactive,–
CCc1cc2c(=O)c(-c3nc4ccccc4n3C)c(CCCC(=O)O)oc2cc1OC(=O)C(C)(C)C,"inconclusive: 39.8 µM [activator, partial curve, poor fit]",–
Cc1ccc(NC(=O)CSc2sc3c(O)cc(=O)[nH]c3c2C#N)c(F)c1,"inconclusive: 22.4 µM [activator, single point]",–
Cc1ccccc1CSc1ncc(CO)n1Cc1ccc(F)cc1,inactive,–
CS(=O)(=O)Nc1ccc(C2=NN(C(=O)c3ccccc3)C(c3cccs3)C2)cc1 (stereo unspecified),"inconclusive: 35.5 µM [activator, single point]",–
COCCN(C(=O)COC(=O)/C=C/c1nc2ccccc2s1)c1c(N)n(Cc2ccccc2)c(=O)[nH]c1=O,"inconclusive: 20 µM [activator, partial curve, poor fit]",–
O=C(O)c1ccc(N/N=C/c2cc3ccccc3nc2Cl)cc1,"inconclusive: 50.1 µM [activator, single point]",–
CCN(C(=O)Cn1cnc2sc(C)c(S(=O)(=O)N3CCN(c4ncccn4)CC3)c2c1=O)c1ccccc1F,"inconclusive: 11.2 µM [activator, partial curve]",–
COc1ccc(-c2nnn(CC(=O)N(CC(=O)NC3CCCC3)Cc3cccs3)n2)cc1OC,"inconclusive: 12.6 µM [activator, partial curve, poor fit]",–

SMILES,Potency,growth rescue (activation)
CC1CCCN(c2ccc(C(=O)Nc3ccc4c(c3)OCO4)cc2[N+](=O)[O-])C1 (stereo unspecified),"inconclusive: 7.94 µM [activator, partial curve, poor fit]",–
COC(=O)C(Cc1ccc(OC(=O)c2ccccc2C)cc1)N1Cc2ccccc2C1=O (stereo unspecified),"inconclusive: 11.2 µM [activator, partial curve, poor fit]",–
Cc1ccccc1NC(=O)Cc1nc(CN(C)CC(=O)Nc2cccc(F)c2)cs1,inactive,–
O=C(CN1C(=O)COc2ccc(S(=O)(=O)Nc3ccccc3)cc21)Nc1cccc(Cl)c1,"inconclusive: 50.1 µM [activator, single point]",–
Cc1ccc(/C=C2/NC(=O)N(Cc3ccccc3F)C2=O)s1,inactive,–
CCOc1ccc2c(c1)NC(c1cccs1)=NC(c1ccc(F)cc1)=N2,"inconclusive: 50.1 µM [activator, single point]",–
O=C(OC12CCCN(C1)/C(=C/c1ccc(Cl)cc1)C2)c1cccc(F)c1 (stereo unspecified),inactive,–
COc1cc(C(C[N+](=O)[O-])c2c(C)[nH]c3ccccc23)ccc1O (stereo unspecified),inactive,–
COc1ccc2occ(CC(=O)Nc3ccc(S(=O)(=O)Nc4nc(C)cc(C)n4)cc3)c2c1,"inconclusive: 50.1 µM [activator, single point]",–
OCC1CCCN(C(=S)Nc2ccc(Nc3ccccc3)cc2)C1 (stereo unspecified),"inconclusive: 39.8 µM [activator, partial curve, poor fit]",–
N#Cc1c(NC(=O)CSc2ncn[nH]2)sc2c1CCCC2,inactive,–
CCOC(=O)N1CCN(c2ccc(S(=O)(=O)N3CCC(C)CC3)cc2[N+](=O)[O-])CC1,inactive,–
COC(=O)[C@]12C[C@H](CC(=O)NCc3ccc(OC)c(OC)c3)C(=O)N(Cc3cccc4ccccc34)C1=C[C@H](C(C)(C)C)O[C@@H]2C,"inconclusive: 50.1 µM [activator, single point]",–
O=S(=O)(Nc1ccc(O)c2ncccc12)c1ccccc1F,"inconclusive: 28.2 µM [activator, single point]",–
COc1ccc(NS(=O)(=O)c2cccc(NC(=O)C3=NN(c4ccccc4)C(=O)CC3)c2)cc1,"inconclusive: 50.1 µM [activator, single point]",–
O=C(CN1CCN(S(=O)(=O)/C=C/c2ccccc2)CC1)Nc1ccccc1N1CCOCC1,"inconclusive: 25.1 µM [activator, single point]",–
CCOc1ccc(C(=O)N2CCC(c3noc(-c4ccc(S(=O)(=O)N5CCCC5)cc4)n3)CC2)cc1,active: 15.8 µM,–
CCc1c(-c2ccccc2)nc2ccccc2c1C(=O)NCc1ccc(C)cc1,"inconclusive: 28.2 µM [activator, single point]",–
CCOC(=O)C1=C(C)NC(C)=C(C(=O)OCC)C1C(=O)OCC(=O)c1ccc2c(c1)OCCO2,"inconclusive: 35.5 µM [activator, partial curve, poor fit]",–
COc1ccc(NC(=S)N(CCCN2CCOCC2)Cc2cn(C)c3ccccc23)cc1,"inconclusive: 28.2 µM [activator, partial curve, poor fit]",–
